Laboratory results from US9963467B2, “Boronic acid derivatives and therapeutic uses thereof” (Rempex Pharmaceuticals, Inc., priority 2014, dated 2018).

System: strains producing class A (KPC) and class D (OXA-48) carbapenemases
Test: Biapenem MIC of test strains
Details: read-out: Biapenem MIC of test strains

C[C@@H](O)[C@H]1C(=O)N2C(C(=O)[O-])=C(SC3Cn4cnc[n+]4C3)[C@H](C)[C@H]12 (stereo partly shown) [Biapenem, reference compound]
MIC: 16 to 32 µg/mL
